PubChem BioAssay AID1030 (National Center for Advancing Translational Sciences (NCATS), 2008)
The whole screen tested about 220,000 compounds, of which about 16,000 (7.3%) were called active. Inconclusive means that the source gave no clear call. Such entries were picked first, then a sample of the others. Calls come from the whole dose curve; as a rule, active = well fitted inhibition curve with a large enough effect (not every such curve was filed as active); inconclusive = small, poorly fitted or top-dose-only effect, or another doubt; inactive = no such curve, though single readings can be large or run the other way. Potencies of inconclusive entries are left out as doubtful fits.

Biological target: Aldehyde dehydrogenase 1A1 (Homo sapiens) (UniProt P00352)
Assay: qHTS Assay for Inhibitors of Aldehyde Dehydrogenase 1 (ALDH1A1);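 for activity, negative = inhibition: plate controls were no enzyme wells and a reference inhibitor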
Conditions: Purified ALDH1A1, NADH fluorescence, propionaldehyde substrate; series mostly up to 75.3 µM; activity, negative = inhibition: at the top concentration
Potency is the fitted concentration of half-maximal effect; tags give direction and shape of the fitted curve.

Sequence of UniProt P00352 (P00352 whole entry, looked up): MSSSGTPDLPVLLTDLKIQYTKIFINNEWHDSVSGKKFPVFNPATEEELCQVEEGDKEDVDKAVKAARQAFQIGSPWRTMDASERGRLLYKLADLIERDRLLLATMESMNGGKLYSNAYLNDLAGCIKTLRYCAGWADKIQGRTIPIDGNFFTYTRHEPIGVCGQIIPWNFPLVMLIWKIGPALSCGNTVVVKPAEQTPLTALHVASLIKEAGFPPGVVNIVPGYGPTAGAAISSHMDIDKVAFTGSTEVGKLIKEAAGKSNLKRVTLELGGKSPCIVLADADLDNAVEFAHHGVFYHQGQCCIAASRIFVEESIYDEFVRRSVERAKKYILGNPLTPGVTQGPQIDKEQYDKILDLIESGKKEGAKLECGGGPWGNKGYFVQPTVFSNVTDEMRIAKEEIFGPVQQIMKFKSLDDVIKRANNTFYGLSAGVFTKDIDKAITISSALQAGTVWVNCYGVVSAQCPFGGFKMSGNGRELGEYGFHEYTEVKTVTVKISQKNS

SMILES | activity, negative = inhibition | Potency
O=c1[nH]ncc(NCc2ccc(Cl)cc2)c1Cl | inactive: 5.24% | –
O=C(CSc1nnnn1-c1ccccc1)NC1CCCc2ccccc21 (centres undefined) | – | active: 10 µM
Cc1cc(C)c(S(=O)(=O)c2ccccc2C)c(Oc2ccccc2)n1 | – | inconclusive [inhibitor, single point]
COc1cc(CN2CCN(Cc3ccc(SC)cc3)CC2)cc(OC)c1O | – | inconclusive [inhibitor, single point]
CN1C=CC(=CC=C2C=CC(=O)C=C2)C=C1 | – | inconclusive [inhibitor, single point]
COc1ccc(C(CCc2ccc(C)o2)NC(=O)Nc2ccc(OC)cc2OC)cc1 (centres undefined) | – | inconclusive [inhibitor, single point]
CCOC(=O)C1=C(C)NC(SC(C)=O)=NC1c1ccc(OC(C)=O)c(OC)c1 (centres undefined) | – | inconclusive [inhibitor, single point]
C=C(C)CNC(=S)N1CCNC(=O)C1CC(=O)OC (centres undefined) | inactive: -14.7% | –
CCCC(=O)Nc1ccc2c(c1)C(=O)NC2=O | – | inconclusive [inhibitor, partial curve]
COC(=O)c1ccc(N2CCOCC2)c(F)c1 | inactive: 10.3% | –
COc1ccc(OC)c(-n2c(=S)[nH]c3cc(C(=O)NCCCN4CCCC4=O)ccc3c2=O)c1 | inactive: -9.93% | –
COc1cccc(N(C(=O)c2ccco2)C(C(=O)NC2CCCC2)c2ccc(N(C)C)cc2)c1 (centres undefined) | – | inconclusive [inhibitor, single point]
COc1ccc(-c2nnc(SCC(=O)OC3CCCCC3)o2)cc1OC | – | inconclusive [inhibitor, single point]
CC1(C)Cc2c(c(=S)nc(-c3ccccc3)n2CCOCCO)CO1 | – | inconclusive [inhibitor, single point]
O=C(O)c1ccc(-n2cccc2/C=C2/NC(=O)N(c3cccc(Cl)c3)C2=O)cc1 | – | inconclusive [inhibitor, single point]
CCN1C(=O)c2cccc3c(S(=O)(=O)Nc4ccccc4)ccc1c23 | – | active: 1 µM
Cc1cc(-c2ccccc2)nc(-c2ccccc2)c1C | – | inconclusive [inhibitor, single point]
Cc1nn(CC(O)COc2ccc3c(c2)CCC3)c(C)c1C (centres undefined) | inactive: -4.7% | –
CSc1ccccc1NC(=S)Nc1cc(C)cc(C)c1 | – | inconclusive [inhibitor, single point]
CCOc1ccc2nc(NC(=O)CSc3nc4c(c(=O)n(C)c(=O)n4C)n3CC)sc2c1 | inactive: -1.29% | –
Cc1ccc(C(=O)c2cc3ccccc3o2)cc1C | – | inconclusive [inhibitor, partial curve]
CCO[P@]1(=O)OC[C@@H]2O[C@H](n3cnc4c(N)ncnc43)[C@H](O)[C@@H]2O1 | inactive: 5.04% [at 13.5 µM] | –
CCCCNC(=O)CSc1nnc(-c2ccc(S(=O)(=O)N3CCCC3)cc2)n1C | inactive: 1.68% | –
O=C1N/C(=N/Nc2ccccc2)S/C1=C\c1ccccc1 | – | active: 5.62 µM
COc1ccc(C2CC(c3ccccc3)=NN2C(=O)COC(=O)c2cccc(S(=O)(=O)N3CCOCC3)c2)cc1 (centres undefined) | – | inconclusive [inhibitor, single point]

SMILES | activity, negative = inhibition | Potency
Cc1cc(-n2c(C)cc(C(=O)CCl)c2C)no1 | – | active: 1 µM
O=C(Nc1cc(Cl)cc(Cl)c1)C(c1ccccc1)N1CCCCC1 (centres undefined) | – | inconclusive [inhibitor, partial curve]
CCOC(=O)C1(Cc2cccc(Cl)c2)CCCN(C(=O)C2CC2)C1 (centres undefined) | inactive: 0.707% | –
COc1ccc(NS(=O)(=O)c2ccc(N3CCCC3)c(NC(=S)Nc3cccc(C)c3C)c2)cc1 | – | active: 8.91 µM
Cc1ccc(CNc2ccc(N3CCOCC3)cc2)s1 | – | inconclusive [inhibitor, single point]
O=C(CSc1c[nH]c2ccccc12)N1CCOCC1 | inactive: -0.338% | –
Cc1cccc(C2Nc3ccccc3C(=O)N2CCc2ccccc2)n1 (centres undefined) | – | inconclusive [inhibitor, partial curve]
O=C(N/N=C/c1coc2ccccc2c1=O)c1cn(-c2ccccc2)nc1-c1ccccc1 | – | active: 3.16 µM
Cc1ccc(-c2cn(-c3ccccc3)c(SCC(=O)NC3CCS(=O)(=O)C3)n2)cc1C (centres undefined) | – | active: 14.1 µM
CCC(=O)Nc1cc(-c2cc3ccccc3oc2=O)ccc1OC | – | inconclusive [inhibitor, single point]
COc1cccc(C(=O)N2CCN(C3CCC(c4ccccc4)CC3)CC2)c1 (centres undefined) | – | inconclusive [inhibitor, single point]
O=C(CCC1CCCC1)Nc1ccc(Br)cn1 | – | inconclusive [inhibitor, full curve, poor fit]
C/C(=C1/SC(N2CCCC2)=NC1=O)c1ccc(Br)cc1 | – | inconclusive [inhibitor, single point]
COC(=O)c1csc(C(=O)c2c[nH]c3ccccc23)n1 | inactive: -1.67% | –
COc1cc(OC)c2c(-c3cccc(-c4sccc4C(C)=O)c3)cc(=O)oc2c1 | – | inconclusive [inhibitor, single point]
COc1ccc2[nH]cc(CCNc3ccnc(-c4ccccc4C)n3)c2c1 | – | inconclusive [inhibitor, single point]
O=C(c1ccc(F)cc1)N1CCCCC(Sc2nnnn2-c2ccccc2)C1=O (centres undefined) | – | active: 4.47 µM
CCN1CCN(c2nc3ccccc3nc2C(C#N)C(=O)OC2CCCCC2)CC1 (centres undefined) | – | inconclusive [inhibitor, partial curve]
O=c1cc(CCl)nc2sc3ccccc3n12 | inactive: 3.63% | –
O=[N+]([O-])c1cccc(/C=N/Nc2nc(N3CCCCC3)nc(N3CCCCC3)n2)c1 | inactive: 7.57% | –
COC(=O)c1cc[n+](CC(=O)c2ccccc2)cc1 | – | inconclusive [inhibitor, single point]
Clc1ccc2nc3c4ccccc4cnn3c2c1 | – | inconclusive [inhibitor, partial curve]
COc1ccc(/C=C/N(CCc2ccc(OC)c(OC)c2)C(=O)c2ccccn2)cc1 | – | inconclusive [inhibitor, partial curve]
CCC(=O)N1N=C(c2ccccc2)CC1c1ccc([N+](=O)[O-])cc1 (centres undefined) | – | inconclusive [inhibitor, single point]
O=C(CN1CCCC1)Nc1ccc(F)cc1 | – | active: 25.1 µM

SMILES | activity, negative = inhibition | Potency
Cc1ccc(Cl)cc1N1CCN(Cc2nnnn2C2CCCCC2)CC1 | – | inconclusive [inhibitor, single point]
NC(=O)C1CCN(C2CC(=O)NC2=O)CC1 (centres undefined) | inactive: 9.04% | –
O=C(CNS(=O)(=O)c1c(Cl)cccc1Cl)OCC(=O)N1CCN(c2ccccc2)CC1 | inactive: -1.51% | –
CC(=O)NC(=S)Nc1ccccc1N1CCCCC1 | inactive: -8.54% | –
CC(=O)N(C1=C(N)C(=O)c2ccccc2C1=O)C(C)C | – | inconclusive [inhibitor, single point]
CC1(C)CC(=O)C(C=Nc2ccc3[nH]ncc3c2)=C(O)C1 | – | inconclusive [inhibitor, partial curve]
CCOC(=O)c1sc2ncn(/N=C/c3ccccn3)c(=O)c2c1C | – | inconclusive [inhibitor, full curve]
COc1cc(/C=N/NC(=O)c2ccncc2)ccc1OCc1cnc(Cl)s1 | – | inconclusive [inhibitor, single point]
COc1ccccc1CCn1c(N)c(C#N)c2nc3ccccc3nc21 | – | inconclusive [inhibitor, partial curve]
O=C(O)[C@H]1CCCC[C@@H]1C(=O)Nc1nc2ccccc2[nH]1 | inactive: -2.23% [at 13.5 µM] | –
N#C/C(=C\Nc1ccccn1)C(=O)C1CC1 | inactive: -1.71% [at 13.5 µM] | –
CC(C)(C)N1CC2([N+](=O)[O-])CN(C(C)(C)C)CC([N+](=O)[O-])(C1)C2 | inactive: 6.78% | –
CCc1ccc2c(c1)/C(=C/C(=O)c1cccs1)C(=O)N2 | – | inconclusive [inhibitor, single point]
Cc1ccccc1CSCc1nc2ccccc2[nH]1 | – | inconclusive [inhibitor, single point]
CCOC(=O)c1cnc(-c2ccccc2O)nc1Cl | – | inconclusive [inhibitor, single point]
COc1ccc(CCNC(=S)NC(=O)c2ccccc2)cc1OC | – | inconclusive [inhibitor, full curve, poor fit]
C=CCOc1c2ccc(C(=O)N(CC)c3ccc(OC)cc3)cc2nn1C | – | inconclusive [inhibitor, partial curve]
Cc1cccc2c1N(C(=O)CN1C(=O)c3ccccc3C1=O)C(C)(C)c1ssc(=S)c1-2 | – | inconclusive [inhibitor, partial curve]
Fc1cccc(C2NC(=S)NC3=C2N2CCC3CC2)c1 (centres undefined) | – | inconclusive [inhibitor, partial curve]
C=CCn1c(SCC(=O)CC(=O)OCC)nc2cc(C(=O)N3CCC(C(N)=O)CC3)ccc2c1=O | – | inconclusive [inhibitor, single point]
CC(=O)c1c(Nc2ccc3c(c2)OCCO3)oc(C)cc1=O | – | inconclusive [inhibitor, single point]
O=C1N=C(N2CCN(c3ccccc3)CC2)S/C1=C\c1ccco1 | inactive: -98.1% | –
Cc1ccsc1C(=O)NNC(=O)C1CC=CCC1C(=O)O (centres undefined) | inactive: 1.33% | –
CCOC(=O)C1CCN(C(=O)CSc2ccccc2Cl)CC1 | – | inconclusive [inhibitor, single point]
